# Measured values: PubChem BioAssay AID1460 (National Center for Advancing Translational Sciences (NCATS), 2008)
# In all, about 270,000 compounds went through this assay and about 5,800 (2.1%) were called active. Inconclusive results, whose numbers are uncertain, are shown with a selection of clear calls. Calls come from the whole dose curve; as a rule, active = well fitted inhibition curve with a large enough effect; inconclusive = small, poorly fitted or top-dose-only effect; inactive = flat fitted curve, though single readings scatter. Potencies beside an inconclusive call are fits to weak or partial responses and may not hold up.
# Target: Microtubule-associated protein tau (Homo sapiens) (UniProt P10636)
# Assay: qHTS for Inhibitors of Tau Fibril Formation, Thioflavin T Binding; note: nearly all actives have a fitted effect of over 55% in size
# Settings: recombinant tau K18 P301L, heparin-induced fibrillization, ThT fluorescence; series mostly up to 57.4 µM
# In short: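 ThT emission at 510 nm, taken 1 hr after adding 30 uM dye, quantifies aggregates formed when 20 uM heparin acts on human tau K18 P301L for 6 hr at 37 C.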
# Potency is the fitted concentration of half-maximal effect; tags give direction and shape of the fitted curve.
# Chain of UniProt P10636 (P10636 whole entry, looked up): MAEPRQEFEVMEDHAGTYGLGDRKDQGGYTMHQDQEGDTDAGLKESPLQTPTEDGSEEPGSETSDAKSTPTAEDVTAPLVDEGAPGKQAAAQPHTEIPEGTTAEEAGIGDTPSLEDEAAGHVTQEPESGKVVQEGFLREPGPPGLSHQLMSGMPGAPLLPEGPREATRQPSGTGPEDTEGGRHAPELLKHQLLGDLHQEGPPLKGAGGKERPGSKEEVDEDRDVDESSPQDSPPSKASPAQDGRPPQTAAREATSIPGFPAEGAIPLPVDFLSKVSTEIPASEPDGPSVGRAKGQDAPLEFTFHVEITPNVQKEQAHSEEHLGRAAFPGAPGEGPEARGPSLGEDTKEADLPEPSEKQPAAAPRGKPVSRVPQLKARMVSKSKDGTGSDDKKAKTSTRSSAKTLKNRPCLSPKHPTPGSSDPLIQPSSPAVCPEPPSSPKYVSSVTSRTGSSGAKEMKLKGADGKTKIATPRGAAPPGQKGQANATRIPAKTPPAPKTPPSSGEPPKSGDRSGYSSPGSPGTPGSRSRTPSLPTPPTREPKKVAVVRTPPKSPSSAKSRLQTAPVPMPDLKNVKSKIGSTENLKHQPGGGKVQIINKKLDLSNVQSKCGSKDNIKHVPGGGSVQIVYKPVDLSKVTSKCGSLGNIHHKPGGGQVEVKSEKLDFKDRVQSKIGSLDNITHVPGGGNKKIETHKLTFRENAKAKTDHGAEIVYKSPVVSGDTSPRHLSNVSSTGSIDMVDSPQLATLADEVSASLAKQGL
row,Compound,Potency
1,CN1C(=O)/C(=C/C=C2\SCCN2C)SC1=S,"inconclusive: 39.8 µM [inhibitor, single point]"
2,COc1cccc(C2=C(C(C)=O)Sc3nnc(C4CCCCC4)n3N2C(C)=O)c1,"inconclusive: 14.1 µM [inhibitor, partial curve, poor fit]"
3,CCOc1ccccc1CNC(=O)c1cn(-c2ccc(OC)cc2)c(=O)c2ccccc12,"inconclusive: 17.8 µM [inhibitor, single point]"
4,O=C(Nc1ccc(-c2cn3c(n2)SCC3)cc1)c1ccco1,"inconclusive: 17.8 µM [inhibitor, partial curve, poor fit]"
5,COC(=O)c1ccccc1OCCCCN1CC(C)OC(C)C1 (stereo not given),inactive
6,Cc1ccc(-c2nc(S(=O)(=O)c3ccc(C)cc3)c(SCC(=O)Nc3ccc(F)cc3)o2)cc1,inactive
7,COc1ccccc1NS(=O)(=O)c1cc(NC(=O)CC(C)(C)C)ccc1N1CCOCC1,"inconclusive: 39.8 µM [inhibitor, single point]"
8,N/C(=N\OC(=O)Cc1ccccc1)c1ccccn1,inactive
9,Cc1cccc(N2CC(c3nc4ccccc4n3CCC3CCCCC3)CC2=O)c1 (stereo not given),inactive
10,Cc1ccc(N2CCN(c3ccc(NC(=O)CCC(=O)O)cc3)CC2)cc1,"inconclusive: 11.2 µM [inhibitor, partial curve]"
11,COc1ccc(/C=C/C(=O)c2ccc(NC3=NCCCS3)cc2)cc1OC,"inconclusive: 6.31 µM [inhibitor, partial curve]"
12,COc1ccc(CCNC(=O)c2cc3c(s2)-c2c(C)cccc2OC3)c(OC)c1,"inconclusive: 1.26 µM [inhibitor, full curve]"
13,CCOc1ccc(C(=O)Nc2ccccc2C(=O)OCc2cc(=O)n3nc(C4CC4)sc3n2)cc1,inactive
14,CCOc1ccc(-c2cc(CCCC(=O)NCc3ccc(C)cc3)no2)cc1,"inconclusive: 0.708 µM [inhibitor, full curve]"
15,COc1ccc(NC(=O)CN(C)S(=O)(=O)c2ccccc2)c([N+](=O)[O-])c1,"inconclusive: 15.8 µM [inhibitor, partial curve]"
16,c1ccc2c(C[n+]3csc4ccccc43)cccc2c1,"inconclusive: 25.1 µM [inhibitor, single point]"
17,N#C/C(=N\Nc1ccc(Cl)cc1)C(=O)c1ccsc1,active: 5.01 µM
18,CCCCSc1nc2c(c(=O)[nH]c(=O)n2C)n1CCc1ccccc1,inactive
19,Cc1ccc(CN2CCN(/N=C\c3cccc([N+](=O)[O-])c3)CC2)cc1,inactive
20,COc1ccc(-c2nnc(SCC(=O)c3cccs3)o2)c(OC)c1,"inconclusive: 5.01 µM [inhibitor, full curve]"
